Measured values reported in the supplement of paper PMC7826260.
The other results are listed elsewhere or left out. Cleavage of a single-stranded DNA pool by Rep nickase domains was read by sequencing (3 µM enzyme, 1 h, 37 °C); shown is the middle of each 90-letter strand. Uncut reads are compared with the no-enzyme pool on a log2 scale; the lower, the more was cut; hits are not called. Counts are relative to all reads; values above 0 arise when much of the pool is cut.

test system: T1, Rep nickase domain of tomato golden mosaic virus; assay: uncleaved DNA left, log2 of reads against the no-enzyme library (log2 ratio); higher = less cleavage (more negative = more Rep cleavage of the k-mer); sequences stand for … in CTCGTCCG…ACCGGAGA
T1 sequence (Rep 1-124, printed without the tag): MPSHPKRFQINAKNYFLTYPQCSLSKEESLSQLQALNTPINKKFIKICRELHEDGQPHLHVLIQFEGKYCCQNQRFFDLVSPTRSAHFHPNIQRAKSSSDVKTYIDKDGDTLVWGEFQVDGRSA
Protocol: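 A pool of 90-nt single-stranded DNAs with seven random bases just before the constant AC of the nick site (name = the seven bases) was cut by 3 µM recombinant His6-SUMO-tagged Rep nickase domain (300 nM DNA, 50 mM HEPES pH 8.0, 50 mM NaCl, 1 mM MnCl2, 1 h, 37 °C, three replicates). Uncut DNA was amplified and sequenced.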

| Sequence | uncleaved DNA left (log2) |
| --- | --- |
| CGTGAAA | 0.0874 |
| CCTGACG | -0.214 |
| GAAGCTG | 0.0867 |
| TCGGTTG | -0.0993 |
| GAATCTC | -0.815 |
| GTTAGAA | 0.119 |
| GTAAGAA | 0.0433 |
| AAGCCCG | 0.0346 |
| CCCGATG | -0.331 |
| ACCTCTC | 0.0171 |
| TGCACAC | -0.0573 |
| AGTTACT | -0.0983 |
| CCGCGTC | 0.0634 |
| GTGCAGA | 0.0243 |
| AGAATCG | 0.065 |
| CTTTCGT | -0.17 |
| GGTTTAC | 0.0804 |
| GGCATAG | 0.188 |
| CGAACTT | -0.0936 |
| ATTGATC | 0.119 |

| Sequence | uncleaved DNA left (log2) |
| --- | --- |
| ACACAGT | 0.0921 |
| TAGTCCA | 0.0708 |
| AAATTCC | -0.245 |
| TTCGGAT | -0.079 |
| ACGCTGT | 0.0149 |
| ACCCGGG | 0.0681 |
| GGCCTTG | 0.084 |
| ATTGGGC | -0.15 |
| ATGGAAA | 0.131 |
| TAGCCTC | 0.00511 |
| TGGGTGG | 0.0112 |
| TGGGAGG | 0.1 |
| TATCCTT | -0.0705 |
| GCACGTT | -0.127 |
| ACATCCA | 0.0526 |
| CTAGTAT | 0.0464 |
| GTTCGCA | 0.0386 |
| CGAGATG | 0.27 |
| TAGTGTG | -0.0438 |
| TTATGCA | -0.102 |
